PubChem BioAssay AID1347041 (National Center for Advancing Translational Sciences (NCATS), 2019)
Hit rate of the full screen: of about 480,000 compounds, about 740 (0.15%) were called active. This list was built around the results that the source calls inconclusive (neither active nor inactive); the mix of calls is not that of the screen. Rule as the data show it: active = activity change below about -30%; inconclusive = mostly about -25% to -30%; inactive = weaker than that.

Biological target: L-lactate dehydrogenase A chain (Homo sapiens) (UniProt P00338)
Test: qHTS assay for inhibitors of human lactate dehydrogenase;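 also: values are at about 110 or 230 µM; plate controls were DMSO wells for no effect and wells without enzyme for full effect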
Details: purified LDHA, NADH/diaphorase-resazurin fluorescence; hits give low values
Source text: LDH is a key glycolytic enzyme that catalyzes the final step in the glycolytic pathway, reducing pyruvate to lactate and regenerating NAD+ equivalents necessary for continued glycolysis. LDHA has been linked to the carcinogenesis and malignancy in numerous forms of cancers and many other diseases. Consequently, both pharma and academia have invested in significant research efforts to identify small molecule therapeutics. Such attempts have been stalled or abandoned due to limited success in discovering potent and drug-like inhibitors that can be utilized to validate LDHA in vivo as a drug target, a necessary step toward advancing such a molecule towards the clinic Towards this goal we designed and performed a quantitative high-throughput screening (qHTS) campaign to discover novel compounds that are potent inhibitors of LDHA enzyme activity and cancer cell line growth.
The assay was optimized to 1536-well plates. Briefly, 3 µL of human lactate dehydrogenase 5 (#A38558H, Meridian Life Science, Inc., Memphis, TN) in LDH assay buffer (200 mM Tris HCl pH 7.4, 100 microM EDTA and 0.01% Tween-20) was added to a black solid bottom 1536-well assay plate (Greiner Bio-One) using a BioRAPTR FRD dispenser (Beckman Coulter, Brea, CA). A 1536-well pintool dispenser outfitted with 20 nL pins (Wako Automation, San Diego, CA) was used to transfer 23 nL of DMSO-solubilized compound (both library and vehicle controls) to each 1536-well assay plate. Following compound transfer, 1 µL of substrate solution containing NADH and sodium pyruvate (Sigma-Aldrich, St. Louis, MO) in LDH assay buffer was dispensed via BioRAPTR FRD to initiate the reaction. Final concentrations in the 4 microL reaction volume were 2 nM LDHA enzyme, 0.06 mM NADH and 0.2 mM sodium pyruvate. Following a 5 minute incubation period at room temperature, 1 µL of detection reagent (C. kluyveri diaphorase (Sigma-Aldrich) and resazurin sodium salt (Sigma-Aldrich) in LDH assay buffer) was added to a total volume of 5 µL. Final concentrations of detection reagents were 0.133 mg/mL diaphorase and 37 µM resazurin. Plates were immediately transferred to a ViewLux microplate imager (PerkinElmer, Waltham, MA), and any resulting resorufin fluorescence was measured (ex540, em590 nm) at 0 and 20 minutes. Fluorescence was normalized using enzyme-free and DMSO-treated control wells on each plate.

Compound | activity change
CSc1ccccc1NC(=O)C(C)N(C)CC(=O)N1CCN(Cc2ccccc2)CC1 (stereo not given) | inconclusive: -29.3%
CC1CCN(CCOCCOc2ccc(Cl)cc2Br)CC1 | active: -33.7%
Cc1cc(C)c2nc(SCC(=O)NC(N)=O)cc(C)c2c1 | active: -34.4%
COc1cc(C2NC(=O)c3ccccc3O2)cc(OC)c1OC (stereo not given) | inactive: -0.207%
CC(CCc1ccccc1)N1CCN(Cc2ccccc2)CC1 (stereo not given) | active: -30.6%
CC1=NC(=O)C(N=Nc2cccc(C(=O)O)c2)N1c1ccccc1 (stereo not given) | inconclusive: -29.6%
Cc1ccc(NC(=O)C(NC2CCCc3ccccc32)c2ccccc2)cc1Cl (stereo not given) | inconclusive: -25.5%
O=C1CC(c2ccccc2)=NO1 | inconclusive: -29.1%
O=C(Nc1sc2c(c1C(=O)O)CCCCC2)c1cccs1 | active: -42.4%
Cc1ccc(SCCCCN2CCNCC2)cc1 | inconclusive: -27.6%
COc1ccc(-c2coc3cc(OC(=O)c4ccco4)ccc3c2=O)cc1 | inconclusive: -29.3%
COc1ccc(C(=O)Nc2ccc(N3CCN(S(C)(=O)=O)CC3)cc2)cc1OC | inconclusive: -27.8%
CCOc1ccc2c(c1)cc(C(=O)NC(C)C)n2C | inconclusive: -28.7%
COc1cc(NC(=O)c2ccc(N3C(=O)C(C)(C)CS3(=O)=O)cc2)cc(OC)c1OC | inconclusive: -28.1%
COC(=O)c1ccc(NC(=O)CC2C(=O)N(c3ccc(C)cc3)C(=O)N2Cc2ccc(OC)cc2)cc1 (stereo not given) | inactive: -5.35%
COc1cc(C2C3CCCCC3(O)CCN2Cc2ccccc2Cl)ccc1O (stereo not given) | inactive: 8.79%
CN1CCN(Cc2cc(=O)oc3ccc(O)cc23)CC1 | inactive: 1.56%
COc1ccc(OCC(=O)Nc2ccccc2N2CCN(C)CC2)cc1 | inactive: 0.105%
COC(=O)C1=CN(c2cccc(C(F)(F)F)c2)C=C(C(=O)OC)C1c1ccc(Cl)cc1 | inconclusive: -27.4%
CSCCC(c1nc2ccccc2[nH]1)n1c(=O)c(-c2cc3ccccc3[nH]2)nc2ccccc21 (stereo not given) | inactive: -4.66%
Brc1ccc(CSc2ccc(-c3ccccn3)nn2)cc1 | active: -31.1%
CN(C)c1ccc(/C=N/NC(=O)c2ccccc2Cl)cc1 | inactive: -7.07%
COc1ccc(C(=O)N2CCC(N3CCN(c4ccccc4)CC3)CC2)cc1 | inconclusive: -28.6%

Compound | activity change
CSc1nc(-c2ccco2)nn1C(=O)c1ccc(C)cc1 | inactive: -1.45%
CN(C)c1cc(CNC(=O)C2COc3ccccc3O2)ccn1 (stereo not given) | inconclusive: -27%
Cc1ccc(C2C3=C(CCCC3=O)Nc3nc(SCCC(C)C)[nH]c(=O)c32)o1 (stereo not given) | inconclusive: -26.2%
COc1ccccc1CNS(=O)(=O)c1ccc2[nH]cc(C(=O)O)c(=O)c2c1 | active: -56.3%
CCCS(=O)(=O)N1CCN(Cc2ccc([N+](=O)[O-])cc2)CC1 | inconclusive: -25.7%
Cc1ccc(C(=O)N/C(=C\c2ccc(-c3ccc(Cl)cc3Cl)o2)C(=O)NC(C)(C)C)cc1 | inactive: -0.588%
O=c1c2ccccc2sn1-c1ccccc1 | inconclusive: -27.7%
COc1cc(CN2CCN(C(=O)c3ccccc3F)CC2)cc(OC)c1OC | inconclusive: -26.1%
Fc1ccc(CN2CCSCC2)cc1Br | inconclusive: -27.3%
CC1=Nc2ccccc2/C1=C/c1c(N)n2c(S(=O)(=O)CC(C)C)nsc2nc1=O | inconclusive: -26.5%
CC(Sc1nnc2c(Cl)cc(C(F)(F)F)cn12)c1ccccc1 (stereo not given) | inconclusive: -25.6%
CC1CCN(C(=O)CC(NC(N)=O)c2ccccc2Cl)CC1 (stereo not given) | inactive: -3.37%
COc1ccccc1OCCCCCCN1CCOCC1 | inconclusive: -27.6%
CN(C(=O)Nc1ccccc1C(F)(F)F)C1CCCCC1 | inconclusive: -25.6%
COc1cc(Cl)c(C)cc1NC(=O)CSc1ncc(S(=O)(=O)c2ccc(C(C)(C)C)cc2)c(=O)[nH]1 | active: -39.1%
CCN(CC)S(=O)(=O)c1ccc2[nH]c(=O)cc(C(=O)N(C)Cc3ccccc3C)c2c1 | inconclusive: -28.8%
CN1CCN(CCOc2ccc(Cl)c(Cl)c2)CC1 | inconclusive: -28.9%
Cc1cccc(-c2ccc3[nH]c4c(c3c2)CCN2C[C@H]3[C@H](C)ON(C)[C@H]3C[C@@H]42)c1 | inconclusive: -27.7%
COc1cc(C(=O)Nc2cc3c4c(c2)CC(=O)N4CCC3)cc(OC)c1OC | inactive: -0.881%
COc1cc(CCNC(=O)c2cc(=O)c3ccccc3o2)ccc1OC(F)F | inconclusive: -25.6%
Cc1cccc(-n2ncc3c(=O)[nH]c(SCC(=O)N4CC(=O)Nc5ccccc54)nc32)c1 | inconclusive: -25.5%
O=C(O)c1cc(NCc2ccc(-c3ccccc3)cc2)ccc1N1CCOCC1 | inconclusive: -26.9%
O=C(NCc1ccccn1)c1ccc(COc2ccc(Cl)cc2)o1 | inactive: -2.57%

Compound | activity change
Cc1ccc2nc(NCC(=O)OC(C)C)nc(-c3ccccc3)c2c1 | inconclusive: -29%
OCCC#Cc1c(-c2ccsc2)sc2ccccc12 | inactive: -2.72%
COCCNC(=O)c1cc(-c2ccc(Cl)cc2)nc2ccccc12 | inactive: 3.37%
CCC(=O)Nc1ccc(C)cc1-c1nnc(SCC(=O)Nc2cc(Cl)ccc2Cl)[nH]c1=O | inconclusive: -27.3%
CC1CCC(C(C)C)C(OCC[N+](C)(C)C)C1 (stereo not given) | inconclusive: -28.2%
CCOc1cc(C)c(S(=O)(=O)Nc2ccc3cn[nH]c3c2)cc1C | inactive: 6.19%
O=C(Nc1cccc(F)c1)Nc1nnc([C@@H]2O[C@H](CO)[C@@H](O)[C@H]2O)s1 | inconclusive: -25.7%
CC/C(=C(/c1ccccc1)c1ccc(OCC[N+](C)(C)C)cc1)c1ccccc1 | active: -30.9%
CCOCCn1c(N2CCN(c3ccccc3)CC2)nc2c1c(=O)n(C)c(=O)n2C | inactive: -1.69%
C[C@@H]1CN([C@H](C)CO)C(=O)CCCn2cc(nn2)CO[C@H]1CN(C)S(=O)(=O)c1ccc2ccccc2c1 | active: -34.2%
CN1CCC(N(C)CC(O)c2ccccc2)CC1 (stereo not given) | inconclusive: -27.9%
CCCc1cc(=O)oc2cc(OCC(=O)Nc3ccc(S(N)(=O)=O)cc3)ccc12 | active: -37.3%
COc1cc(/C=C(/C#N)C(=O)c2ccccc2)cc(Cl)c1O | inconclusive: -26.7%
COc1cccc(-c2nc(CS(=O)(=O)CC(=O)NCc3cccnc3)c(C)o2)c1 | active: -33.9%
CCC(C)NCCOCCOc1ccc(Br)cc1 (stereo not given) | inconclusive: -28.3%
CC[n+]1c(C)sc2c(C)cc(C)cc21 | inconclusive: -25.4%
COc1ccc(Cl)cc1NC(=O)COC(=O)CCS(=O)(=O)c1ccc(NC(C)=O)cc1 | inconclusive: -25.7%
COc1ccc2c(c1)-c1nc(/N=C/c3ccc(O)cc3)sc1CC2 | inactive: 6.24%
CN1CCN(C(=S)NCCc2ccccc2)CC1 | inconclusive: -28%
CCc1cccc(CC)c1NC(=O)CSc1nc2ccc(N3C(=O)C4C(C3=O)[C@H]3C=C[C@@H]4C3)cc2s1 (stereo not given in full) | inconclusive: -26.8%
Cc1c(C2(O)C(=O)Nc3ccc(F)cc32)c(=O)n(-c2ccccc2)n1C (stereo not given) | inactive: -0.845%
COc1ccccc1C1CCN(C(=O)c2ccccc2)CC1 | inactive: -3.49%
CCC(C(=O)Nc1nccs1)(C(F)(F)F)C(F)(F)F | inactive: -11.5%

Compound | activity change
COc1cc(Cl)c(NC(=O)CCOc2cc(C)ccc2C)cc1OC | inconclusive: -26.6%
CCCC(=O)Nc1ccccc1N1CCN(Cc2nc3ccccc3n2C)CC1 | inconclusive: -29.2%
CCn1c(SCC(=O)c2ccc(C#N)cc2)nnc1-c1ccccc1C | inconclusive: -27.6%
CCOc1cc(C=O)cc(Cl)c1OC(C)C(=O)OC (stereo not given) | inactive: 11.6%
CC1(C)CCC[C@@]2(C)C1CCC1(C)OC(=O)C[C@@H]12 (stereo not given in full) | inconclusive: -27.4%
COc1ccc(C(=O)Nc2nnc(S(=O)(=O)N(CC(C)C)c3ccccc3)s2)cc1 | inconclusive: -25%
CCn1c(CNC(=O)c2ccc3c(c2)OCO3)nnc1SCC(=O)c1ccc(OC)cc1 | active: -30.4%
c1ccc(NCc2nnc3n2CCCCC3)cc1 | inactive: -7.19%
Cc1nn(CC(=O)O)c(=O)c2ccccc12 | inconclusive: -27.4%
CCOC(=O)N1CCN(c2cc(C(=O)O)c3cc(NC(=O)C4CC4)ccc3n2)CC1 | inactive: 18.1%
CCc1ccc(OCC(=O)NC(NC(=S)Nc2ccc(Cl)cc2)C(Cl)(Cl)Cl)cc1 (stereo not given) | inconclusive: -28.4%
CC(=O)N(c1ccc(N(C(C)=O)S(=O)(=O)c2cccs2)cc1)S(=O)(=O)c1cccs1 | active: -87.9%
CC1(C)CC(=NNC(N)=S)CC(C)(C)N1 | inconclusive: -25.3%
CC(CNC(=O)Cc1n[nH]c(=O)c2ccccc12)N1CCOCC1 (stereo not given) | inconclusive: -28%
N#CC(C(=O)CCc1ccccc1)C(=O)Nc1ccccc1Cl (stereo not given) | inconclusive: -26%
COc1cccc(OC)c1NC(=O)CN1CCN(C)CC1 | active: -32.1%
CC(Sc1nc2cc(S(=O)(=O)N(C)C)ccc2o1)C(=O)NC1CC1 (stereo not given) | inconclusive: -28.4%
Cn1c(CN2CCOCC2)nnc1SCc1ccccc1Cl | inconclusive: -27%
CC1CC(N(C(=O)c2ccco2)c2ccccc2)c2ccccc2N1 (stereo not given) | inactive: 6.35%
CN(C)c1cc(NC(=O)CNC(C)(C)C)c2ccccc2n1 | inconclusive: -25.1%
CC(=O)CC(=O)Nc1ccccc1C#N | inconclusive: -25.6%
